Reference: the BET-seq Pho4 binding data (Le et al. 2018)
This is one part of the list. These are noisy estimates, calculated here from bound and input reads.

These sequences were tested against T1, Pho4 (S. cerevisiae) (UniProt P07270) (assay: relative binding free energy (BET-seq); higher = weaker binding). Conditions: reference: library average.
T1 sequence: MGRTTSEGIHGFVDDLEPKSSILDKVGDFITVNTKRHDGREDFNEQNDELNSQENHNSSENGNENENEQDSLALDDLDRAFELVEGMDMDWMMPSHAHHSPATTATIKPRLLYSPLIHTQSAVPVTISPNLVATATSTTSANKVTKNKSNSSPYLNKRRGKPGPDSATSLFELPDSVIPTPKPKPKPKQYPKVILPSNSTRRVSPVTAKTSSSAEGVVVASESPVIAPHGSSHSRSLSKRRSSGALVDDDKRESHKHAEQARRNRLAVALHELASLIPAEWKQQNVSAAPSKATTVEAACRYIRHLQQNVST
With GGTGTCACGTGTGTAT the “relative binding free energy” value was 0.29 kcal/mol. For AAGGTCACGTGCAGGG, the “relative binding free energy” value was 0.01 kcal/mol. In the case of TTATTCACGTGAGTGA, the “relative binding free energy” value is reported as 0.57 kcal/mol. With CGTTGCACGTGGTTCT the “relative binding free energy” value was -0.01 kcal/mol. With AGTTTCACGTGATCAT the “relative binding free energy” value was 0.13 kcal/mol. In the case of ATGTACACGTGATAGG, the “relative binding free energy” value is reported as 0.2 kcal/mol. For GGATTCACGTGAAGTT, the “relative binding free energy” value was 0.45 kcal/mol. With TTAGGCACGTGTGGGT the “relative binding free energy” value was -0.1 kcal/mol. With GGATGCACGTGGTTAG the “relative binding free energy” value was -0.11 kcal/mol. In the case of GGGTTCACGTGTAAAG, the “relative binding free energy” value is reported as 0.41 kcal/mol. With ACGGGCACGTGGGGAC the “relative binding free energy” value was -0.23 kcal/mol. For GGTGGCACGTGGTAGC, the “relative binding free energy” value was -0.04 kcal/mol. In the case of TGGGTCACGTGCTAAT, the “relative binding free energy” value is reported as -0.01 kcal/mol. For GCGGTCACGTGTGTAT, the “relative binding free energy” value was 0.19 kcal/mol. TGGAACACGTGACGTG was tested, and the “relative binding free energy” value was 0.09 kcal/mol. With TTTTCCACGTGTGAGG the “relative binding free energy” value was 0.11 kcal/mol. In the case of TGGAACACGTGTTATA, the “relative binding free energy” value is reported as -0.02 kcal/mol. In the case of TGGTACACGTGTTGCA, the “relative binding free energy” value is reported as 0.1 kcal/mol. AAGTGCACGTGGGAGT was tested, and the “relative binding free energy” value was -0.11 kcal/mol. With GCGGGCACGTGGGCGT the “relative binding free energy” value was -0.16 kcal/mol. In the case of TTTGACACGTGAAGAG, the “relative binding free energy” value is reported as 0.11 kcal/mol. For TGCAGCACGTGTGGTG, the “relative binding free energy” value was -0.13 kcal/mol. For CCTGTCACGTGGTTGT, the “relative binding free energy” value was 0.06 kcal/mol. GGTTGCACGTGAGTCT was tested, and the “relative binding free energy” value was 0.31 kcal/mol. With TGTATCACGTGACGCT the “relative binding free energy” value was 0.25 kcal/mol. In the case of ATGGGCACGTGCGATA, the “relative binding free energy” value is reported as -0.15 kcal/mol. In the case of TGGGACACGTGAAGTA, the “relative binding free energy” value is reported as 0.25 kcal/mol. TAAAGCACGTGTATGG was tested, and the “relative binding free energy” value was 0 kcal/mol. With GGAGGCACGTGTAAAT the “relative binding free energy” value was 0.15 kcal/mol. For CATTTCACGTGTTCGG, the “relative binding free energy” value was 0.22 kcal/mol. In the case of GGTAGCACGTGATAGT, the “relative binding free energy” value is reported as 0.06 kcal/mol. GGGGTCACGTGCTTAA was tested, and the “relative binding free energy” value was 0.16 kcal/mol. With AAGGGCACGTGCGGTT the “relative binding free energy” value was -0.11 kcal/mol. For TATAGCACGTGTAGCG, the “relative binding free energy” value was -0.02 kcal/mol. In the case of AGGGCCACGTGGTAAG, the “relative binding free energy” value is reported as -0.23 kcal/mol. For AGAGGCACGTGTAATG, the “relative binding free energy” value was -0.08 kcal/mol. In the case of GATGACACGTGGGTTA, the “relative binding free energy” value is reported as 0.04 kcal/mol. In the case of GAGGGCACGTGGATTT, the “relative binding free energy” value is reported as 0.01 kcal/mol. TGTAACACGTGAGAGG was tested, and the “relative binding free energy” value was 0.21 kcal/mol. In the case of TGGAACACGTGTAAAT, the “relative binding free energy” value is reported as 0.3 kcal/mol. In the case of TGGCGCACGTGTTTTG, the “relative binding free energy” value is reported as -0.07 kcal/mol. CTGTTCACGTGGTCAT was tested, and the “relative binding free energy” value was 0.27 kcal/mol. In the case of GGTTCCACGTGGTGAG, the “relative binding free energy” value is reported as 0.12 kcal/mol. With TAAATCACGTGGGCGG the “relative binding free energy” value was 0.11 kcal/mol. For CGAAGCACGTGTGTGG, the “relative binding free energy” value was -0.05 kcal/mol. With CGGGGCACGTGTAATG the “relative binding free energy” value was -0.01 kcal/mol. With TTAATCACGTGTATGG the “relative binding free energy” value was 0.08 kcal/mol. In the case of TGGTTCACGTGGTCGC, the “relative binding free energy” value is reported as 0.3 kcal/mol. In the case of GTGGGCACGTGGTAAC, the “relative binding free energy” value is reported as -0.02 kcal/mol. For CGGGGCACGTGTGGAA, the “relative binding free energy” value was 0.07 kcal/mol. With ATGAGCACGTGCGTAT the “relative binding free energy” value was -0.03 kcal/mol. GGGGCCACGTGTGTTG was tested, and the “relative binding free energy” value was -0.1 kcal/mol. In the case of AACGGCACGTGTTTAT, the “relative binding free energy” value is reported as -0.01 kcal/mol. For GAGTACACGTGATAGG, the “relative binding free energy” value was 0.28 kcal/mol. AATAGCACGTGGGTGC was tested, and the “relative binding free energy” value was -0.26 kcal/mol. With CATAGCACGTGGTTTA the “relative binding free energy” value was -0.1 kcal/mol. ATTAGCACGTGTAATA was tested, and the “relative binding free energy” value was 0.15 kcal/mol. For GTGTCCACGTGGGGTC, the “relative binding free energy” value was -0.12 kcal/mol. With AGCGTCACGTGGGTCA the “relative binding free energy” value was 0.01 kcal/mol. TGTAGCACGTGAGCTG was tested, and the “relative binding free energy” value was 0.07 kcal/mol. With GTTGGCACGTGTGGTT the “relative binding free energy” value was 0.03 kcal/mol. With GGTTGCACGTGGTTAG the “relative binding free energy” value was 0.05 kcal/mol. With GTTAGCACGTGTGTAC the “relative binding free energy” value was 0 kcal/mol. With GGTCGCACGTGTTAAG the “relative binding free energy” value was 0.11 kcal/mol. In the case of TTGCTCACGTGATTAT, the “relative binding free energy” value is reported as 0.34 kcal/mol. With CATTACACGTGAGGGG the “relative binding free energy” value was 0.23 kcal/mol. TCGGACACGTGGAGTT was tested, and the “relative binding free energy” value was 0.06 kcal/mol. With TCCTTCACGTGTTGGT the “relative binding free energy” value was 0.2 kcal/mol. In the case of ATTTGCACGTGATCGT, the “relative binding free energy” value is reported as 0.03 kcal/mol. With CGTTGCACGTGGGGCA the “relative binding free energy” value was -0.13 kcal/mol. ATAGGCACGTGAGCGT was tested, and the “relative binding free energy” value was 0.14 kcal/mol. In the case of GGGATCACGTGGTGCT, the “relative binding free energy” value is reported as 0.07 kcal/mol. With TATCGCACGTGATTTG the “relative binding free energy” value was 0.07 kcal/mol. With GGTTACACGTGGAAGT the “relative binding free energy” value was 0.22 kcal/mol. GCTTTCACGTGATTTT was tested, and the “relative binding free energy” value was 0.53 kcal/mol. With TAAAACACGTGGGTGA the “relative binding free energy” value was 0.03 kcal/mol. CGGTTCACGTGTAAGT was tested, and the “relative binding free energy” value was 0.29 kcal/mol. For GATTCCACGTGAGTTT, the “relative binding free energy” value was 0.44 kcal/mol. With AGCGTCACGTGAGGTC the “relative binding free energy” value was 0.25 kcal/mol. For GAGTGCACGTGTACGT, the “relative binding free energy” value was -0.02 kcal/mol. For TCGTTCACGTGGTGAG, the “relative binding free energy” value was 0.32 kcal/mol. TTTTTCACGTGATTTT was tested, and the “relative binding free energy” value was 0.31 kcal/mol. In the case of TCGGGCACGTGGGTTA, the “relative binding free energy” value is reported as -0.17 kcal/mol. With CGTGCCACGTGGGGGA the “relative binding free energy” value was -0.18 kcal/mol. In the case of TTTGGCACGTGCTTGA, the “relative binding free energy” value is reported as -0.1 kcal/mol. TGATTCACGTGTGCTG was tested, and the “relative binding free energy” value was 0.17 kcal/mol. In the case of TATCGCACGTGGTGTT, the “relative binding free energy” value is reported as -0.13 kcal/mol. For GTTAGCACGTGAAAAG, the “relative binding free energy” value was 0.33 kcal/mol. With ACAATCACGTGGGGTT the “relative binding free energy” value was -0.11 kcal/mol. With AGGTTCACGTGGTGAC the “relative binding free energy” value was 0.2 kcal/mol. With GGCGGCACGTGCGGAA the “relative binding free energy” value was 0.03 kcal/mol. AAGTTCACGTGTAGTT was tested, and the “relative binding free energy” value was 0.46 kcal/mol. For ACGTGCACGTGAAGTG, the “relative binding free energy” value was 0.03 kcal/mol. TATTTCACGTGGTTAT was tested, and the “relative binding free energy” value was 0.17 kcal/mol. In the case of TTAGTCACGTGTATCT, the “relative binding free energy” value is reported as 0.06 kcal/mol. For CTAGGCACGTGTTTGT, the “relative binding free energy” value was -0.29 kcal/mol. For TCGTTCACGTGGTAGA, the “relative binding free energy” value was 0.35 kcal/mol. For TAATGCACGTGCGAGT, the “relative binding free energy” value was -0.06 kcal/mol. GGCGGCACGTGTGATG was tested, and the “relative binding free energy” value was 0.05 kcal/mol. For AGGCACACGTGTGTTG, the “relative binding free energy” value was -0.07 kcal/mol. For CTGTACACGTGTTTTA, the “relative binding free energy” value was 0.11 kcal/mol. TGATCCACGTGTTTTA was tested, and the “relative binding free energy” value was 0.09 kcal/mol. With GCCTGCACGTGGTTGT the “relative binding free energy” value was 0.01 kcal/mol. In the case of GGGGTCACGTGTTCCG, the “relative binding free energy” value is reported as 0.25 kcal/mol. In the case of TTGTACACGTGTGCTG, the “relative binding free energy” value is reported as 0.04 kcal/mol. In the case of GTTTCCACGTGACTGT, the “relative binding free energy” value is reported as 0.43 kcal/mol. In the case of TCTTGCACGTGGCTTG, the “relative binding free energy” value is reported as 0.02 kcal/mol. With CTGTTCACGTGCTTTG the “relative binding free energy” value was 0.31 kcal/mol. For TGTTGCACGTGCAGCG, the “relative binding free energy” value was 0.02 kcal/mol. GAGTTCACGTGAATTT was tested, and the “relative binding free energy” value was 0.46 kcal/mol. In the case of TTAGGCACGTGTCTAT, the “relative binding free energy” value is reported as -0.12 kcal/mol. With GGTAGCACGTGTTCAG the “relative binding free energy” value was -0.04 kcal/mol. TGGCGCACGTGGACGT was tested, and the “relative binding free energy” value was -0.1 kcal/mol. GGTACCACGTGGGATG was tested, and the “relative binding free energy” value was -0.05 kcal/mol. With ATGGGCACGTGTAGTT the “relative binding free energy” value was 0 kcal/mol.
